# Experimental data published in the RNAGym collection of RNA variant scans (doi:10.1073/pnas.2313332121).
# Variants at the floor of the assay are shown more often than the library holds them.
# B1: TPR 5TU (parent)
# chain: GGAUCUUCUCGAUCUAACAAAAAAGACAAAUCUGCCACAAAGCUUGAGAGCAUCUUCGGAUGCAGAGGCGGCAGCCUUCGGUGGCGCGAUAGCGCCAACGUUCUCAACUAUGACACGCAAAACGCGUGCUCCGUUGAAUGGAGUUUAUCAUG
# Variants of: B1
# Test: polymerase ribozyme fitness, log enrichment relative to wild type (log ratio); higher = more active; in vitro selection for triplet polymerase activity
# Method in brief: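 Genotype fitness is the logarithm of its enrichment divided by wild-type enrichment, using inverse-variance-weighted averages of replicates. That logarithm is base 2. Enrichment was measured by Illumina sequencing of input and output libraries from one triplicate in vitro selection round, with frozen incubation at −7 °C, on PCR-built, transcribed mutant libraries of each subunit of a heterodimeric triplet polymerase ribozyme, retaining genotypes with ≥10 input reads and ≥1 read per output.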
row,Variant,polymerase ribozyme fitness (log ratio)
1,G59A C85U C149G,-3.59
2,G59A C85U G88C A120U C123G U151C,≤ -4.2
3,G59A C93U A106G A121G G140A G141U,≤ -4.2
4,G59A C93U U104G U148C,≤ -4.2
5,G59A C99U U104G A107U U134G U135C,≤ -4.2
6,G59A C103U A107U C108G U145A,≤ -4.2
7,G59A G62A G86U A107C,≤ -4.2
8,G59A G65C A91C G117A G140C,≤ -4.2
9,G59A G80C A120U U130A U139A A147U,≤ -4.2
10,G59A G84A,-2.24
11,G59A G84C C99U C105U,≤ -4.2
12,G59A G88U A89G G94U A113G,≤ -4.2
13,G59A G92A C96A C105G C118G A121C U134G A142U U146C,≤ -4.2
14,G59A G92C G94U U148G G152A,≤ -4.2
15,G59A G94A,-0.522
16,G59A G94U C95A U104C,-2.63
17,G59A G100A U127G U135G G143A G152U,≤ -4.2
18,G59A G100C,≤ -4.2
19,G59A G133U G136C U148C,≤ -4.2
20,G59A U77A C87G G92C A107G,≤ -4.2
21,G59A U78A C95U C103G G152C,≤ -4.2

row,Variant,polymerase ribozyme fitness (log ratio)
1,G59A U90G C103A C118A,≤ -4.2
2,G59A U102C A107U,≤ -4.2
3,G59A U102G A113G U146G,≤ -4.2
4,G59A U127A,-3.81
5,G59C A60U,0.153
6,G59C A64G G84A C93U,≤ -4.2
7,G59C A73G C85A,-2.84
8,G59C A73U C96A G143A,≤ -4.2
9,G59C A119U C149U,-0.775
10,G59C A138G,-3.04
11,G59C C75U,-1.52
12,G59C C85A C99U G141U U146G,≤ -4.2
13,G59C C85G,-1.64
14,G59C C85U C103U A137C G152U,≤ -4.2
15,G59C C87A A122C C149G,≤ -4.2
16,G59C C87A U101C G141U A147U,≤ -4.2
17,G59C C87G,≤ -4.2
18,G59C C87U U102G C132U U145G,≤ -4.2
19,G59C C93A A97G C118A U148A,≤ -4.2
20,G59C C93A C105A,≤ -4.2
21,G59C C93U C103A A150G,≤ -4.2

row,Variant,polymerase ribozyme fitness (log ratio)
1,G59C C96G A147U U148C,≤ -4.2
2,G59C C96G C118G A142U,-3.61
3,G59C C96U A106G C132U U145C,-0.905
4,G59C C108A,≤ -4.2
5,G59C C149A,≤ -4.2
6,G59C G62A C93A U148A,≤ -4.2
7,G59C G65C,≤ -4.2
8,G59C G65C C76G U145G C149A,≤ -4.2
9,G59C G65U C85U C99G G126A G136C,≤ -4.2
10,G59C G67A U78G C79A C87A G143A,≤ -4.2
11,G59C G68A C93U G126U A147G,≤ -4.2
12,G59C G68C C118G,-4.15
13,G59C G68C G92A,≤ -4.2
14,G59C G68U A73G G92C A122U C123U,≤ -4.2
15,G59C G80C C125A A147U,≤ -4.2
16,G59C G83U C108G A113C U146A A150G,≤ -4.2
17,G59C G84A C85A G117C C149A,≤ -4.2
18,G59C G86U,-1.67
19,G59C G94C G126A U139A,≤ -4.2
20,G59C G124A U151C,-3.78
21,G59C U61C U90C,≤ -4.2

row,Variant,polymerase ribozyme fitness (log ratio)
1,G59C U61G G88C C103G G117U U135G,≤ -4.2
2,G59C U77C C87U C99A A138U C149U,≤ -4.2
3,G59C U90C U101A G152U,≤ -4.2
4,G59C U127A,-3.77
5,G59U A60C G83A C116U C118G,-2.5
6,G59U A60G C93U,-3.87
7,G59U A60U U82G A91G G94A,≤ -4.2
8,G59U A66C G71A G80U G94U A122G G143C,≤ -4.2
9,G59U A66G A91G G100U U134A G143A A147G A150C,≤ -4.2
10,G59U A66G G86U U109G C118U G140U,≤ -4.2
11,G59U A97C,-0.238
12,G59U A106G C114U,-1.65
13,G59U A120G,-0.485
14,G59U C69U C87G A107U G117U,≤ -4.2
15,G59U C75G G83C C103A A150G,≤ -4.2
16,G59U C75U C87A C96G,≤ -4.2
17,G59U C95G A113G G136C,≤ -4.2
18,G59U C96U A121C G126A U146G,-2.76
19,G59U C103U,-0.503
20,G59U C105U A107G A120G,≤ -4.2
